Laboratory results from the supplement of paper PMC3334620.
In all, about 33,000 sequences were measured (“E-score (-0.5 to 0.5)”: median about -0.012, highest 2% from about 0.29 on). The list shows a part of the results.

Each sequence was assayed against T1, Ybr033w (UniProt P38073) (assay: PBM E-score (8-mer binding enrichment) (E-score (-0.5 to 0.5)); higher = stronger / more preferred TF binding; most listed sequences are background and not binding sites). Settings: protein concentration: 200 nM; construct: GST-full length.
T1 sequence: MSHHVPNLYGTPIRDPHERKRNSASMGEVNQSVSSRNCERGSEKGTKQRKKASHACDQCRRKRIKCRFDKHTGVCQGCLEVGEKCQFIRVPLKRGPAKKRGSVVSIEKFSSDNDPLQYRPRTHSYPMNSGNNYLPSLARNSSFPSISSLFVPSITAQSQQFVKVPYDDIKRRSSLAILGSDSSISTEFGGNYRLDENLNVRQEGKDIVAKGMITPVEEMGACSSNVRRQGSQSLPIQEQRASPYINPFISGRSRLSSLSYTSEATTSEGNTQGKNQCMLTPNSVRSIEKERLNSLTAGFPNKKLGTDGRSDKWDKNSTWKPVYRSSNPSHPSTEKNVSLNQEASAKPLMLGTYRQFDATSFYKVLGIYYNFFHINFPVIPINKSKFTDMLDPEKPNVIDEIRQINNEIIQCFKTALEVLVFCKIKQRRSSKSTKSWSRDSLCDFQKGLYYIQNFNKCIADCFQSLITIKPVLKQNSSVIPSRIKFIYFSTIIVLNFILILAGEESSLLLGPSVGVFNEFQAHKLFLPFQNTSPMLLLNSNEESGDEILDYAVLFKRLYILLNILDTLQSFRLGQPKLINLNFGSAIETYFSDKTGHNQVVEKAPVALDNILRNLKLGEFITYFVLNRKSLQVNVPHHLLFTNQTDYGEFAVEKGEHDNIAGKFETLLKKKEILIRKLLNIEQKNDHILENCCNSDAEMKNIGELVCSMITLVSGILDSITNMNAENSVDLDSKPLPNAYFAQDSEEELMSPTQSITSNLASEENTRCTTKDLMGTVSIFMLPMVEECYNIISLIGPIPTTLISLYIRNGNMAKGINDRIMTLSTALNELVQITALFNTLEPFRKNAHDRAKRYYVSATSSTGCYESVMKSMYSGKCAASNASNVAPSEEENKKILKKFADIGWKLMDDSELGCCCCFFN
Outline: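 Universal all-10-mer Agilent arrays, fresh or stripped once, were converted to double-stranded form by primer extension. GST-tagged yeast transcription factors from PURExpress in vitro transcription/translation, full-length or DNA-binding domain only, were applied at about 100-200 nM and detected with fluorescent anti-GST. After masliner normalisation, the Universal PBM Analysis Suite scored each ungapped eight-base word together with its reverse complement by E-score.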

Sequence	PBM E-score
CAGCTATG	-0.0252
CATGGACA	-0.0412
CAGTCATA	0.0931
TAGGGCAA	-0.022
GATCGACC	0.0146
ACCCGACC	-0.0863
CCGCTTGA	-0.162
GCGTGGCA	-0.179
AACAGGCG	-0.15
CAGTGTTA	0.162
ATAATGTA	0.16
GTTATTCA	0.21
ATGCACTA	-0.0286
AGCGATAT	0.246
GCCCTCCC	-0.333
CCAATTGA	0.129
CAAAATAC	0.217
ATCACCTG	-0.0393
TAAGTGAA	0.293
GGCAAGAC	-0.254
CGCCACCC	-0.128
GACCCAAA	-0.0192
CCTAGATC	-0.148
GCTAAAGC	-0.0232
ATTATTGG	0.127

Sequence	PBM E-score
ACTCTGCA	0.057
CGTACAGC	-0.229
CAGATCGG	-0.116
GCGAGCCA	-0.153
ACCATTTC	0.118
CCCGTAAG	-0.135
AACCCATC	-0.108
ATGGACAT	0.12
CCTCTTTA	-0.0818
GTAGTGTA	0.146
CGGTTCAG	-0.104
CAGAAATG	-0.00635
GGGTGAGA	-0.224
ACCAAACA	0.1
CACCACAG	-0.0521
CCCTGACC	-0.144
CGACTCTA	-0.0745
GAGAGATA	0.0945
CCTACAAG	-0.0823
ATGATAGA	0.11
ACAGCCCC	-0.258
CTCCCGAC	-0.195
AAGGCTTC	-0.0959
GCGCAGAC	0.12
CCTTTCAA	-0.00501

Sequence	PBM E-score
CCAGAAGA	0.0748
ACGCGATG	-0.0355
GTATAGAA	-0.0445
CCATCAGA	-0.179
ACCTCAAC	-0.00288
CAAAGAAC	0.184
CCCTCAAG	-0.186
AGGATCAC	-0.0786
CTCGGTGA	0.00892
CTGACGTA	-0.108
ACTGTATA	0.207
CTAGCGTC	-0.201
AGTGATCG	-0.189
ATGAACGG	-0.119
TACGTCCA	-0.0957
CATGAAAC	0.0906
ATCTGTAC	0.166
ACGGCGAA	-0.0227
GTCGACGA	0.00328
CCCTGGTA	-0.22
CAACCTAA	0.198
GAAAGGCA	0.0425
GGAGTGGA	0.105
CTGGTGCC	-0.155
TGGACGAA	-0.0336

Sequence	PBM E-score
CGTTGAGC	0.00379
ACGCCCGT	-0.0902
ATACCATA	0.297
CGACACCG	-0.167
AGCTATGG	-0.121
CATTAAGG	0.102
AAATAACT	0.294
CTGCTTTA	0.269
CACCTGAA	0.149
GGACAGTA	0.138
CTACCGGA	-0.0344
CACCTATC	-0.0279
TCGGTTCA	-0.0353
GCTCGACC	-0.134
CGGACTTC	-0.171
TAAAATAA	0.261
ACAGTAAT	0.233
AAGTCGCG	0.0728
AACGAGCG	-0.17
GATGCTCA	-0.113
AATCTGGC	0.00473
ATTCTGCG	-0.0245
AGGGCAGG	-0.163
CGGGAGGA	-0.0519
GATGGCGA	0.0807

Sequence	PBM E-score
AGAATACA	0.121
AATATCGT	0.33
GTAGACCA	0.0341
ATTGGATA	0.223
CGTTTCAA	-0.0281
TGCTAACA	0.154
ATCTTATG	0.0675
ACCTGGCA	-0.0945
AAATTTCA	-0.0112
ACTGGGTA	-0.0447
TACCACTA	0.105
AAGAAACA	0.201
ACCAGTAT	-0.104
GGGCACCC	-0.248
ATCAAATC	0.0507
CAGGACAG	-0.0027
GAGGCCAA	-0.128
CCGATTAC	-0.0157
AATTGAGA	0.0659
GCACGGCC	-0.169
ATGGGACA	-0.128
ACTTACTC	0.0333
CATTAGAA	0.167
ACATTAGC	0.181
ACTATGAT	0.102

Sequence	PBM E-score
CGCCCGTA	-0.327
CGCCTCGC	-0.13
ATTTATAG	0.0429
AATGATCG	-0.046
AGCTTGTC	-0.107
ACCACGAG	0.0793
ATATTACG	0.333
CGGACGCA	-0.0392
CCACCCCA	-0.0528
CATAAGTA	0.0645
CAAACTGA	0.14
AATGGTAA	0.234
CGACCGCG	-0.133
ACACACCT	-0.00793
GAAATAAA	0.247
CGCCTGAG	-0.039
CGATCACA	0.168
GAGACATA	0.146
GCATTCAA	0.154
GCTGTTGA	-0.00862
CCCTAATA	0.00892
GTGTGCAA	-0.13
ACGATGAG	0.113
GAGACCAA	0.0622
CTACAGCA	0.0371

Sequence	PBM E-score
CAATGACA	0.14
GATCTTCA	0.0894
GCCTTTTA	-0.102
ACTAAAAA	0.238
AATTAAGA	0.171
CGTTCTAG	-0.0499
CTAGACAG	-0.0284
CTCGAAAG	-0.0118
ACTCCCAA	-0.0182
ACTAGTAC	0.0281
GAGTCTGC	-0.23
AAGCTGTC	-0.0872
CCCTAACA	0.111
GAACGTAA	0.182
CAGCCTTC	-0.0807
AGTCCCGC	-0.35
ACGTTGGA	0.0581
GTACTGGA	0.135
CCAAGTAC	-0.101
AGGCCCTC	-0.217
AACGAGAT	-0.0468
GATTCTCA	0.0255
AGAACGTC	-0.0127
AGGGACGC	-0.108
ACCTGCGC	0.0485

Sequence	PBM E-score
AGGCATCG	-0.0542
GAGGGCCA	-0.161
AAAACGCC	0.0866
ACCTCTTC	0.156
GCTATCTA	-0.213
CTGTTGCA	0.0729
AGACTGGC	-0.155
AAAACACT	0.169
CTTCACTC	-0.0348
GGCTTACC	-0.183
CGTTAAGC	-0.0125
CGGTATAA	0.0894
CGGTTAAC	-0.115
ATATCCTG	0.0849
AGGCCTAC	-0.0682
AAGCCGTG	-0.135
CGGGTTTC	0.0357
AACAGATT	0.13
GACCTCAC	-0.204
CATCGTTA	-0.0287
ATTCATTA	0.263
CATTGTGG	0.116
TCCCAGCA	-0.042
AGAAAACA	0.218
ACAAATGC	0.161

Sequence	PBM E-score
CGGAAACC	-0.142
AAAGGACA	0.0726
GTCATGGA	-0.00482
TAGCCGCA	-0.201
GTAAAGAC	0.00317
CCCTCAAA	-0.0244
ATTAATTC	0.291
AGGGATCA	0.169
AGCAACCC	-0.239
GTGAGAAC	-0.0982
CACTGAGC	-0.0483
AACGGGGT	-0.308
GAAGCGAA	0.107
AGTATCGG	0.144
ACATTCGT	0.0954
ACAGACTG	-0.0639
TCACACGA	-0.00326
ATGATTAA	0.231
GCCCTGAC	-0.184
